Values marked as one replicate rest on one cluster of the flow cell; about a third of the high ones do not repeat.
test system: ATP; experiment: switch fluorescence ratio, 500 uM ATP over buffer (Cy3 cluster intensity, sum of 5 cycles each) (fold (ratio)); higher = stronger signal-on switching upon ATP binding; sequences stand for … in TCGTCGGCAGCGTCAGATGTGTATAAGAGACAGTTTTTTTTTTTTTTTTTTTTTTTTT…TC; settings: aptamer strand: ATP DNA aptamer (quencher-CACCTGGGGGAGTATTGCGGAGGAAGG + anchor), 100 nM annealed; ATP concentration: 500 uM; one replicate
Summary of the method: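 Cy3-labelled switching-strand clusters on a modified Illumina MiSeq flow-cell were annealed to 100 nM quencher-labelled ATP aptamer and imaged first in selection buffer, then after 15 min with 500 uM ATP at 22 °C. NaOH stripping and re-annealing separated each of five buffer/ATP cycles, and clusters outside 100-1000 RFU were excluded. The fluorescence ratio sums target-cycle Cy3 intensity over buffer-cycle Cy3 intensity per cluster and averages it per switch-domain sequence.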
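Further: ATP exposure 15 min at 22 °C before imaging.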

Q: How did the switch fluorescence ratio turn out when CTACGGTAAT was run?
A: 1.61

Q: For CTACTCGGTG, which switch fluorescence ratio is on record?
A: 1.01

Q: How did the switch fluorescence ratio turn out when CTAGAAGGCC was run?
A: 0.999

Q: For CTAGAATACG, which switch fluorescence ratio is on record?
A: 1.06

Q: With CTAGAGATGG as the sequence, how does the switch fluorescence ratio read?
A: 1.02

Q: Which switch fluorescence ratio does the source give for CTAGAGCTCT here?
A: 1.02

Q: With CTAGATCCCT as the sequence, how does the switch fluorescence ratio read?
A: 1.01

Q: With CTAGATGACT as the sequence, how does the switch fluorescence ratio read?
A: 1.01

Q: CTAGATTTCT was tested. Which switch fluorescence ratio did it give?
A: 1.04

Q: How did the switch fluorescence ratio turn out when CTAGCAAACA was run?
A: 1.19

Q: How did the switch fluorescence ratio turn out when CTAGCACAAA was run?
A: 0.971

Q: With CTAGCACTAG as the sequence, how does the switch fluorescence ratio read?
A: 1.15

Q: With CTAGCCGCCT as the sequence, how does the switch fluorescence ratio read?
A: 0.885

Q: For CTAGCGTTGA, which switch fluorescence ratio is on record?
A: 1.03

Q: For CTAGCTATA, which switch fluorescence ratio is on record?
A: 1.13

Q: With CTAGGCGGGA as the sequence, how does the switch fluorescence ratio read?
A: 1

Q: Which switch fluorescence ratio does the source give for CTAGGCTCCT here?
A: 1.06

Q: CTAGGGGAGG was tested. Which switch fluorescence ratio did it give?
A: 0.972

Q: For CTAGGGGGCC, which switch fluorescence ratio is on record?
A: 0.968

Q: How did the switch fluorescence ratio turn out when CTAGGTAGAA was run?
A: 1.02

Q: Which switch fluorescence ratio does the source give for CTAGGTTTTT here?
A: 1.01

Q: With CTAGTAACAT as the sequence, how does the switch fluorescence ratio read?
A: 1.03

Q: With CTAGTAATTG as the sequence, how does the switch fluorescence ratio read?
A: 1.03

Q: CTAGTCAAAT was tested. Which switch fluorescence ratio did it give?
A: 0.942

Q: How did the switch fluorescence ratio turn out when CTAGTTATGT was run?
A: 1

Q: For CTAGTTCCGT, which switch fluorescence ratio is on record?
A: 0.992

Q: For CTAGTTCGCA, which switch fluorescence ratio is on record?
A: 1.08

Q: Which switch fluorescence ratio does the source give for CTAGTTCTCG here?
A: 1.01

Q: Which switch fluorescence ratio does the source give for CTAGTTGTAG here?
A: 0.964

Q: With CTATAAAACA as the sequence, how does the switch fluorescence ratio read?
A: 1.05

Q: CTATAATGAT was tested. Which switch fluorescence ratio did it give?
A: 1.02

Q: For CTATACTCT, which switch fluorescence ratio is on record?
A: 1.06

Q: For CTATATGACC, which switch fluorescence ratio is on record?
A: 1

Q: With CTATCAGCCA as the sequence, how does the switch fluorescence ratio read?
A: 0.987

Q: How did the switch fluorescence ratio turn out when CTATCAGGGA was run?
A: 0.991

Q: CTATCAGGGT was tested. Which switch fluorescence ratio did it give?
A: 0.974

Q: For CTATCCTAAT, which switch fluorescence ratio is on record?
A: 0.974

Q: How did the switch fluorescence ratio turn out when CTATCGGGTT was run?
A: 1.02

Q: CTATCTAAA was tested. Which switch fluorescence ratio did it give?
A: 0.901

Q: With CTATCTGACT as the sequence, how does the switch fluorescence ratio read?
A: 0.999

Q: How did the switch fluorescence ratio turn out when CTATCTTCGC was run?
A: 1.04

Q: For CTATGACAAA, which switch fluorescence ratio is on record?
A: 1.03

Q: With CTATGATACC as the sequence, how does the switch fluorescence ratio read?
A: 1.05

Q: CTATGATCAT was tested. Which switch fluorescence ratio did it give?
A: 0.974

Q: How did the switch fluorescence ratio turn out when CTATGCGCAT was run?
A: 1.09

Q: With CTATGGCGT as the sequence, how does the switch fluorescence ratio read?
A: 1.03

Q: Which switch fluorescence ratio does the source give for CTATTACAGT here?
A: 0.986

Q: How did the switch fluorescence ratio turn out when CTATTCGTTT was run?
A: 1.01

Q: For CTATTGAGCG, which switch fluorescence ratio is on record?
A: 1.02

Q: CTATTGAGGA was tested. Which switch fluorescence ratio did it give?
A: 1

Q: For CTATTGAGGG, which switch fluorescence ratio is on record?
A: 1.01

Q: With CTATTGCATA as the sequence, how does the switch fluorescence ratio read?
A: 1.08

Q: Which switch fluorescence ratio does the source give for CTATTGGGCA here?
A: 0.978

Q: CTATTGGGT was tested. Which switch fluorescence ratio did it give?
A: 0.963

Q: How did the switch fluorescence ratio turn out when CTATTGGTAG was run?
A: 0.98

Q: For CTATTTCCCA, which switch fluorescence ratio is on record?
A: 0.992

Q: CTATTTCGGT was tested. Which switch fluorescence ratio did it give?
A: 0.99

Q: CTATTTTCGG was tested. Which switch fluorescence ratio did it give?
A: 0.977

Q: With CTCAAATCGA as the sequence, how does the switch fluorescence ratio read?
A: 1.01

Q: How did the switch fluorescence ratio turn out when CTCAAGACAT was run?
A: 1.03

Q: How did the switch fluorescence ratio turn out when CTCAAGCTTG was run?
A: 0.952

Q: Which switch fluorescence ratio does the source give for CTCACAAGGT here?
A: 1.11

Q: For CTCACAGCTT, which switch fluorescence ratio is on record?
A: 1.06

Q: How did the switch fluorescence ratio turn out when CTCACGGACC was run?
A: 1.79

Q: For CTCACTGCGA, which switch fluorescence ratio is on record?
A: 1.67

Q: For CTCAGAAGAA, which switch fluorescence ratio is on record?
A: 1

Q: How did the switch fluorescence ratio turn out when CTCAGACACG was run?
A: 1.05

Q: For CTCAGAGCAG, which switch fluorescence ratio is on record?
A: 1.24

Q: Which switch fluorescence ratio does the source give for CTCAGATGCA here?
A: 1.01

Q: For CTCAGCGAAT, which switch fluorescence ratio is on record?
A: 2.38

Q: For CTCAGTATTA, which switch fluorescence ratio is on record?
A: 1.05

Q: Which switch fluorescence ratio does the source give for CTCAGTTCTG here?
A: 0.974

Q: For CTCATAAATG, which switch fluorescence ratio is on record?
A: 1.04

Q: How did the switch fluorescence ratio turn out when CTCATATAAA was run?
A: 0.964

Q: Which switch fluorescence ratio does the source give for CTCATCAGGT here?
A: 1.16

Q: Which switch fluorescence ratio does the source give for CTCATGAGAT here?
A: 0.993

Q: For CTCATGGATG, which switch fluorescence ratio is on record?
A: 0.963

Q: CTCATGGTTT was tested. Which switch fluorescence ratio did it give?
A: 0.997

Q: With CTCATTCGGG as the sequence, how does the switch fluorescence ratio read?
A: 0.968

Q: Which switch fluorescence ratio does the source give for CTCCAAAGTT here?
A: 1.12

Q: Which switch fluorescence ratio does the source give for CTCCAAGAGG here?
A: 1.37

Q: With CTCCAATTGA as the sequence, how does the switch fluorescence ratio read?
A: 1.09

Q: With CTCCAGAATT as the sequence, how does the switch fluorescence ratio read?
A: 0.993

Q: How did the switch fluorescence ratio turn out when CTCCATTGAC was run?
A: 2.23

Q: CTCCCCCGAG was tested. Which switch fluorescence ratio did it give?
A: 4.42

Q: CTCCCTATTG was tested. Which switch fluorescence ratio did it give?
A: 1

Q: Which switch fluorescence ratio does the source give for CTCCCTTCGT here?
A: 1.11

Q: With CTCCGCCGTT as the sequence, how does the switch fluorescence ratio read?
A: 1.29

Q: For CTCCGTGAGC, which switch fluorescence ratio is on record?
A: 2.86

Q: CTCCTAAACT was tested. Which switch fluorescence ratio did it give?
A: 1.11

Q: With CTCCTATTTC as the sequence, how does the switch fluorescence ratio read?
A: 1.08

Q: Which switch fluorescence ratio does the source give for CTCCTCCATT here?
A: 1.27

Q: Which switch fluorescence ratio does the source give for CTCCTCGCCG here?
A: 1.07

Q: How did the switch fluorescence ratio turn out when CTCCTCTAGC was run?
A: 2.09

Q: How did the switch fluorescence ratio turn out when CTCCTGCTGT was run?
A: 2.22

Q: For CTCGACAGGA, which switch fluorescence ratio is on record?
A: 1.03

Q: CTCGACGGGT was tested. Which switch fluorescence ratio did it give?
A: 0.99

Q: CTCGACTATG was tested. Which switch fluorescence ratio did it give?
A: 0.995

Q: Which switch fluorescence ratio does the source give for CTCGACTTCT here?
A: 0.971

Q: CTCGATCTGG was tested. Which switch fluorescence ratio did it give?
A: 1.02

Reference: the supplement of paper PMC10126150
